# Experimental data as given in PMC4336329 (PLoS ONE, 2015).
# In all, about 310,000 compounds went through this assay and about 14,000 (4.5%) showed an effect of 50% or more. Effects have a minus sign here. This is one part of the list.
# Target: human ether-à-go-go-related gene (hERG) potassium channel (human, UniProt Q12809)
# Experiment: primary screen, population patch clamp on CHO cells stably expressing hERG
# 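Further: peak tail current of the secondary pulse compared with the same well before compound.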
# human ether-à-go-go-related gene (hERG) potassium channel, sequence (Q12809 whole entry, looked up): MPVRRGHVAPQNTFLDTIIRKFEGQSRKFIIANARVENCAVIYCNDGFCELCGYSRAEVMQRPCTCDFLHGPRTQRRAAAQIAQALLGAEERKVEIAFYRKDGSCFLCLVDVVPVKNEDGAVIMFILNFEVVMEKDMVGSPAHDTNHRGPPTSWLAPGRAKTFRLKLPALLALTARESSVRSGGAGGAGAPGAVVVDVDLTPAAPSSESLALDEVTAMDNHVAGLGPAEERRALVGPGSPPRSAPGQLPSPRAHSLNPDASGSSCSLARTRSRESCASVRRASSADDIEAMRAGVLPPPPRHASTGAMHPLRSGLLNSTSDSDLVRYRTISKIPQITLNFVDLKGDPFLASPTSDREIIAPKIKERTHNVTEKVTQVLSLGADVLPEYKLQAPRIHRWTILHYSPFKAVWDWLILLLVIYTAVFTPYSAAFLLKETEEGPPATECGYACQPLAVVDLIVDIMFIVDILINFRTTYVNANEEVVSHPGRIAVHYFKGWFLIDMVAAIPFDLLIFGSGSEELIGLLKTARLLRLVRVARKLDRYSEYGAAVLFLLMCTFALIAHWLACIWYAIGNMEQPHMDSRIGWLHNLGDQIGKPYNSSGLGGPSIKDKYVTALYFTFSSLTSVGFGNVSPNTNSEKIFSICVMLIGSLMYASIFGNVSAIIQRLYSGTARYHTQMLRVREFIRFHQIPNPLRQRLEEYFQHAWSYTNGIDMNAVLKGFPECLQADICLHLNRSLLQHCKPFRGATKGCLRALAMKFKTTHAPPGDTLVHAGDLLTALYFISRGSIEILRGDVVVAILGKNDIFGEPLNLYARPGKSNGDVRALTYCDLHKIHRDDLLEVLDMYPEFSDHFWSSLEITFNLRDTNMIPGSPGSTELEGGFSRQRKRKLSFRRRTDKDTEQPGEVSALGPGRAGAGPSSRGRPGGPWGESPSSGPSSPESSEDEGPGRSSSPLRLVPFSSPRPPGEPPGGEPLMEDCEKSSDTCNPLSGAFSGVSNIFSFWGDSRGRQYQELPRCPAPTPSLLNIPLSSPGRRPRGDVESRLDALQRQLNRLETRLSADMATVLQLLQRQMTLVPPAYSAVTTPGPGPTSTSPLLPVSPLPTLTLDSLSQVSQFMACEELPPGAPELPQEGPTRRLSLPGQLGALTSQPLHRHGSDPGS
row,SMILES,"hERG current change (%, negative = inhibition) at 10uM"
1,COCCC(=O)N1CCCC(C(=O)c2ccccc2SC)C1 (centres unmarked),13.1%
2,N#CC(C#N)=NNc1ccc(S(=O)(=O)N2CCCCC2)cc1,-26.2%
3,COC(=O)C12CCC(C)(c3nc4ccccc4nc31)C2(C)C (centres unmarked),1.05%
4,NS(=O)(=O)c1ccc(N2CCN(CCOc3ccc(Cl)cc3)CC2)nc1,-69.8%
5,O=C(N/N=C/c1ccc(-c2cccc(C(F)(F)F)c2)o1)c1cccc(F)c1,7.1%
6,O=C(c1ccc(S(=O)(=O)Cc2ccccc2Cl)c([N+](=O)[O-])c1)N1CCOCC1,6.77%
7,COc1ccc(CN(C(=O)c2cnccn2)C(C(=O)Nc2ccc(F)cc2)c2ccccc2)cc1 (centres unmarked),-68.2%
8,CCn1c(SCC(=O)Nc2nc(C)c(C(=O)OC)s2)nnc1C(C)C,0.0754%
9,CCSC(=Nc1ccccc1)Nc1ccccc1,7.89%
10,Cc1cc(C)nc(OC(C(=O)O)C(OCCC(C)C)(c2ccccc2)c2ccccc2)n1 (centres unmarked),6.26%
11,CCC(C)NC(=O)Cn1c(=O)n(-c2ccccc2)c(=O)c2ccc(C(=O)NCc3ccco3)cc21 (centres unmarked),-2.04%
12,O=C(NC1CCCC1)C(c1cccnc1)N(C(=O)c1csnn1)c1ccccc1 (centres unmarked),-13.8%
13,O=C(CSc1ncn[nH]1)Nc1ccc(S(=O)(=O)Nc2ncccn2)cc1,57%
14,COc1cccc(NC(=O)Nc2cc(Cl)ccc2C)c1,35.1%
15,CN1CCN(C2CCN(Cc3ccc(O)c4ncccc34)CC2)CC1,5.17%
16,Cc1ccc(NC(=O)[C@@H](CC(C)C)NC(=O)[C@@H]2Cc3ccccc3CN2)cc1,-26.9%
17,CN(C)C(=O)c1ccc(NC(=O)COC(=O)c2cc(S(=O)(=O)N(C)C)ccc2N2CCCC2)cc1,-15.9%
18,CCOC(=O)C(C)n1cnc2c(nnn2Cc2ccc(Cl)cc2)c1=O (centres unmarked),-23.4%
19,CCOc1ccc(/C(O)=C2/C(=O)C(=O)N(CCCn3ccnc3)C2c2cccs2)cc1Cl (centres unmarked),5.43%
20,CCOC(=O)C1CCN(C(=O)c2ccc(S(=O)(=O)Nc3ccccc3OC)cc2)CC1,-35.8%
21,COc1ccc(C(=O)/C=C/c2cn(CC(O)CN3CCOCC3)c3ccccc23)cc1 (centres unmarked),3.55%
22,CCOC(=O)c1c2n(c3ccc(O)cc13)CCCCC2,8.86%
23,COc1cccc(NC(=O)CN(Cc2ccccc2)S(C)(=O)=O)c1,-0.578%
24,COC(=O)c1ccc(CSc2nnc(CNC(=O)c3ccc(OC)cc3)o2)o1,2.63%
25,COc1ccc(CN(C(=O)c2cccs2)c2nccs2)cc1OC,-10.9%
26,Cc1ccc(OCC(=O)N/N=C\c2cn(Cc3ccccc3)c3ccccc23)cc1C,5.36%
27,COc1ccc([C@H]2CC(=O)C=C(/C=C/c3ccc(C(F)(F)F)cc3)C2)cc1,-62.9%

row,SMILES,"hERG current change (%, negative = inhibition) at 10uM"
1,CCC(C)c1ccccc1N1CC(C(=O)Nc2cc(S(=O)(=O)N3CCOCC3)ccc2OC)CC1=O (centres unmarked),-4.27%
2,CCCOC(=O)c1ccc(NC(=O)c2cccc(S(=O)(=O)N3CCN(C(C)=O)CC3)c2)cc1,-20.8%
3,COCCN1CCCC(CNCc2cn(C)nc2-c2ccc(Oc3ccccc3)cc2)C1 (centres unmarked),-33.2%
4,CCOC(=O)CSc1nnc(CSc2nc3ccccc3c(=O)[nH]2)n1-c1ccccc1,-2.87%
5,Cc1cccc(CNS(=O)(=O)c2ccc(-c3ccc(=O)[nH]n3)s2)c1,-11.7%
6,COc1ccccc1CN(C)C(=O)c1ccccc1SCC(=O)N1CCCC1,1.36%
7,COc1ccc(NC(=O)C23CC4CC(C2)CC(n2cnc(Br)n2)(C4)C3)c(OC)c1,-23.4%
8,O=[N+]([O-])c1ccccc1CNC(Cc1ccccc1)c1ccccc1 (centres unmarked),-11.3%
9,Cc1cccc(Cn2ccc(N)n2)c1,11.7%
10,CCOC(=O)Cc1csc(SCC(=O)Nc2cc(Cl)ccc2Oc2ccccc2)n1,-4.26%
11,Cc1ccc(S(=O)(=O)n2cnc3ccccc32)cc1,8.06%
12,O=C(Nc1ccc(Cc2ccc(NC(=O)N3CCOCC3)cc2)cc1)N1CCOCC1,9.75%
13,Cc1ccc(-c2nnn(CC(=O)N(CC(=O)NC(C)C)c3cnc4ccccc4c3)n2)o1,-0.922%
14,CCc1ccc2[nH]c3nc(SCC(=O)NNC(=O)c4ccc(C(C)(C)C)cc4)nnc3c2c1,-1.88%
15,CCn1c(=O)n(CC)c2cc(N3CCCC3)c(NC(=O)c3cccc(OC)c3)cc21,-8.65%
16,CC(C)=CCc1c(C)nc2ccccc2c1C(=O)O,15.7%
17,CCCn1c(SCC(=O)N2CCCCC2)nnc1C(C)C,21.5%
18,CCN(CC)S(=O)(=O)c1cccc(NC(=O)/C=C/c2ccc([N+](=O)[O-])cc2)c1,-17.9%
19,COc1ccc2nc(NCCO)[nH]c2c1,2.83%
20,COc1cc(OC)cc(C(=O)NCCNC(=O)c2ccccn2)c1,14.3%
21,CN(C)S(=O)(=O)c1ccc(C(=O)NCC(=O)N/N=C/c2ccccc2Cl)cc1,5.43%
22,CC1CCC(NC(=O)CCNS(=O)(=O)c2ccc3c(c2)CCC(=O)N3)CC1 (centres unmarked),12.6%
23,Cl.O=C(O)C1=CCCN(CCON=C(c2ccccc2)c2ccccc2)C1,-8.21%
24,Cc1cccc2cc(CN(Cc3ccc(F)cc3)C(=O)C(F)(F)F)c3nnnn3c12,28.5%
25,CC(C)(C)c1cc[n+](-c2[nH]c(=O)sc2/C=N/NC(=O)c2ccccc2[O-])cc1,16.5%
26,OC[C@H]1O[C@@H](Oc2ccc3cc(Br)ccc3c2)[C@H](O)[C@@H](O)[C@H]1O,4.76%
